# In the supplement of paper PMC11417369:
# This is one part of the list.
# System: PfSIP2 AP2 domain 1 (GST-tagged)
# Experiment: gcPBM binding intensity (ln(normalized median fluorescence intensity)); higher = stronger DNA binding
# In short: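 The binding buffer was 1× PBS containing 1% milk, 0.2 mg/ml BSA, 0.5% salmon testes DNA and 0.03% Triton X-100. In it, GST-tagged P. falciparum DNA-binding domains expressed in E. coli were applied for 1 h to an Agilent 4 × 180k array of primer-extended double-stranded 36-bp intergenic genomic probes plus negative controls. Binding intensity, read with Alexa488 anti-GST antibody and a 488 nm scan, is the highest Masliner-normalised natural-log median intensity across replicate spots of either probe orientation.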
row,Sequence,gcPBM binding intensity (ln)
1,TATTTAAGAGTATGAACACACATCATACCCATATAA [CACACA_site5911],6.79
2,ATTTAACCAAATAATATATTTAAAAAATAGTCACAT [CACACA_negctrl_site274],6.96
3,TTAATTTATGTTAATGGTACGTAAATGCATTTATTT [XGTACX_site3002],7.17
4,TTTTATAATTTGAGAACATGCAACATAAATATAAAG [TGCATGCA_site965],7.48
5,TATAATATATGAAAAAGTACAAATATTTCGATGGTC [XGTACX_site129],7.24
6,TTTATTAAATATATATGTACATATCAAAATGTATAA [XGTACX_site3181],7.01
7,GTTAAACATCTTCTGTGATATGTTAGAATATTATTT [CACACA_negctrl_site687],6.7
8,TTTTTTTTCTATTGAGCACACATATCACGATTAGTA [CACACA_site7992],7.22
9,TATTTCACAAACCTTACATGCGGTTTATTTATATAT [TGCATGCA_site123],6.9
10,ATAATTTATATCATTACACACATTTTTTATATTTTT [CACACA_site3450],7.09
11,TTTTTGAATGTTTGCACACAAATCTCATAATTTTAG [CACACA_site357],6.96
12,TAGTTACATAAAATATGTACGTATAATTTTTTTATT [XGTACX_site3847],7.11
13,TGGTATATACGACACACACACATATGTATAAATATA [CACACA_site6561],7.17
14,TATTTTTAAAAGTTAACAGAAAAAATATAAATAAAT [GTGCAC_negctrl_site295],7.09
15,TTTTCCCTTTTTTCCGCACACAATAAAATAAATAAA [CACACA_site2807],7.7
16,TGTAATAAAATAATTAGTACACATATATGTATATTT [XGTACX_site5896],6.92
17,TACCATAATCAATGCACACATAACAAAATATTATTA [CACACA_site2722],7.33
18,TTTATCATGAACAGAAGTACATTTATATCAATGTCT [XGTACX_site6470],6.79
19,ATATATATATAATGTTGTACGTTTTATTCTCCCATT [XGTACX_site8071],8.99

row,Sequence,gcPBM binding intensity (ln)
1,ATATATATATATTTTACACACAATGGAGAAAAAAAT [CACACA_site644],8.51
2,TTTACACTTTTTTTTGTACACACTAAAAAGATTAAC [CACACA_site3933],7.23
3,TGTTGTTACCTATATACACACATATAAATATTATAG [CACACA_site7180],6.99
4,AAAAAAAAAAAAAAAACACACAAGGATCAGATAGAT [CACACA_site7743],7.56
5,TTTTTCAGAAAAGAAACACACATATAAATATTTATA [CACACA_site7170],6.96
6,AGGGCATATATATATGCACACATACATATATACATG [CACACA_site9282],7.3
7,AATATTATGATATTATGTACATATTAAAAGCACCAC [XGTACX_site6236],9.58
8,TATGCATATACACAAGCACACATATATATATATATA [CACACA_site8266],9.4
9,AAAAAAAAAAAAAAAAAAACTAATATAATAAAAATA [TGCATGCA_negctrl_site150],8.03
10,AAAAAAATAATATAATATTAAATCTTAGTTAATAAA [GTGCAC_negctrl_site658],6.63
11,TTTTTTTTTTTTTACACACCCAAATCACATACATAT [CACACA_site6089],7.35
12,TTTTTTTTTTTTTTTTCTTTTTTTTTTTTAAATAAG [XGTACX_negctrl_site418],6.78
13,AACATCTTATCATCATGTACGAAGCAGTTTTATAAG [XGTACX_site2490],6.98
14,TATAATAAATATACTGGTACACAAATATATATATTT [XGTACX_site7741],7.04
15,TGTAATTTTTTACGTTGTACATATATTAACAATATA [XGTACX_site3991],7.08
16,ATATTATATTTACATAGTACACTATATGTATATATA [XGTACX_site2101],6.94
17,TTACATATTTTCATTTGTACATATTCATTTTTTTTC [XGTACX_site6988],6.91
18,AAATAACCCACGTGCATGCACTTCAATAACTGAACT,9.05
19,TAAAAAAGAAAAAGAGCACACAAAAATATTTAACCT [CACACA_site8885],6.95

row,Sequence,gcPBM binding intensity (ln)
1,TATATATTTATATATTGTACACTCTTATGTAGTGTA [XGTACX_site210],6.95
2,ATTTTTATATTTAATACACACATAAAATCATACCAT [CACACA_site23],7.13
3,ATGTCAGGGAAAAAAACACACAAGAGTATGATATGT [CACACA_site2180],6.93
4,AATATATACATACATACATGCACATATATATATATA [TGCATGCA_site393],9.23
5,AAATAGTTGTTATGGGTGCAAACCACATATATATAA [GTGCAC_site9428],11
6,AGGCCTTTTAGTATTTCACACACGTAAATGTGTATA [CACACA_site8284],6.8
7,ATTTGTTTAAGTCACGAACACACATATATCATCAAT [CACACA_site985],6.92
8,ATTATTTACCACAACACACAAATATTTACCAATCAT [CACACA_site5472],7.33
9,GTTTATTAGGAATTATGTACACAGTTTTATAAAGAA [XGTACX_site2994],7.31
10,AATATAATATATTGCACACAAAAAGTGAATTATTCT [CACACA_site1684],7.12
11,AAATTAAATGTAAGCACACATAAATTATACGCATAT [CACACA_site3335],6.92
12,ACATTGAATAAATAATGTACATATATAATATATATT [XGTACX_site95],7.05
13,TTGCAGTATTTCGGAACACACAAACATAAATATGTA [CACACA_site5307],7.06
14,AAATATTATTCATTTTGTACGTATAATTTTTAATGA [XGTACX_site3509],6.95
15,AGTAGTCTGGAGAAAAGTACACAGTATCTGGTAGCT [XGTACX_site2544],6.82
16,TATAATAATCCACAAGCACACACACCCACATATATA [CACACA_site8343],7.2
17,GATCTTTCACATATATATATAAAGGATATTATGGTA [CACACA_negctrl_site522],7.04
18,ATTATATTATATTATACATGCATAATATTATATAAA [TGCATGCA_site647],7.08
